Read counts are not given, so values of variants with three or more changes are uncertain.
B1: LINE1-mini (parent)
chain: GGCAGAGCUCAACACAGCGUGGCAAAGUGGCUGUGGCUAGACUGCC

Variants of: B1
Assay: self-cleavage, relative activity (ratio to wild type); higher = more cleavage; in vitro, sequencing; the parent is a self-cleaving ribozyme

Row | Variant | self-cleavage
1 | A12C G19A C23G U28G C31A C46U | 0
2 | U9A G33A C37A A41U | 0.13
3 | A16U A24G G35C | 0.02
4 | A4G U9G G44A | 0.08
5 | C10U A14C G33A G40C | 0.02
6 | G5U G19U C23G U32G | 0.19
7 | G1C G2A G7A | 0.17
8 | U9C C23U C31G | 0.01
9 | G5A C31U G35C | 0.16
10 | G5A C31G G44U C46U | 0
11 | C8A A12C G19A A41G | 0.04
12 | A6G G19A U34C | 0.03
13 | G5U C10G U34C C46G | 0.01
14 | A6C U20A G21C | 0.11
15 | C10U G19A U28A | 0.24
16 | C31A G36A G40A U43G | 0.06
17 | C8A G21U G27C G29U | 0.09
18 | G5A G19A G22U | 0.03
19 | A12U G30C G36U | 0.04
20 | G7A G35A G44A | 0.12
21 | C13G G19C G22A | 0.09
22 | C3A A4G A6G G17A C45A | 0.1
23 | C18A G21C C45A | 0.43
24 | U9G A12G G30U C31A U38G | 0.02

Row | Variant | self-cleavage
25 | G2A G7C G33A | 0.51
26 | A6G C10A G27C G33A | 0.02
27 | U9A C13A G44C | 0.14
28 | G2A G21U C23A G40A | 0.14
29 | A26G A41U C45U | 0.42
30 | A11U U28A C31G C37U | 0.01
31 | C8U C18G A26C | 0.05
32 | C10G G22A G27C | 0.06
33 | C3A G7C A16U G30C | 0.08
34 | A4G C15G C18U G19U | 0.04
35 | C10U C23U G30U | 0.29
36 | G21A G29U U32A | 1.43
37 | G27U C31A C45U | 0.42
38 | G22A A24G U34G | 0.41
39 | G5A A16C G22U G29C | 0.04
40 | G1U C3A G5C U9C C15U G33U G35A | 0.25
41 | C3A A11U G29C | 0
42 | C3G C8G U28C U38G | 0.14
43 | A6C C10A G40U | 0.06
44 | G1A G19A G21A A26C U34C | 0.5
45 | A6C C8U A11U C13A | 0.01
46 | A24C A26U G30A C42U | 0.09
47 | G2U U9C C15A C18G G30C C37A | 0
48 | G1U U28G C31A U38A | 0.1

Row | Variant | self-cleavage
49 | G2U G5A C10A A11C C18U | 0.02
50 | A24U A26G G30C | 2.96
51 | U20G C37U G44C | 0.03
52 | G17U U20C U32G U38C G40A | 0
53 | A26C G30C G36A | 0.07
54 | C8G U9G C10U A16U U38G C46U | 0.03
55 | G2A A4G C15U A26U G29A G40C | 0.6
56 | A6U A16G G36U | 0.09
57 | U28C U34C G35A | 0.04
58 | G1C C3A C18U G29C | 0.08
59 | A6U G27C G40C | 0.03
60 | G2C C13U C23U C45U | 0.06
61 | U9A C15G G27U G36A | 0.06
62 | C31U C37A U38G | 0.02
63 | C3G G21C G35C | 0.13
64 | U34C C37A G40U | 0.03
65 | G17A G21C G36U | 0.11
66 | A4C A6C G30U C31A U38A | 0.03
67 | G27U G29C G40U C45U | 0.07
68 | G5A G19C G40U | 0.07
69 | G7A G21U U38G G40U | 0.01
70 | A12C C13A U20A C37G A41C C45G | 0.01
71 | G5U C18U U20G A26U G27C A39U C46A | 0.02
72 | U9A C15U G30A C31G | 0.02

Row | Variant | self-cleavage
73 | C10A G33A A39C | 0
74 | G7U A24C C37A | 0.07
75 | A11U C15A G40A C42G | 0.02
76 | A11G A12G C37G | 0
77 | G1C A24U U32A C42U U43C | 0.01
78 | G7C C15G C23U A26U G30C | 0.04
79 | G21A C23U U28A | 0.58
80 | C13U U28A G29C C31G G33U G36C | 0.04
81 | C10U G21U C31U G35A G40C | 0.01
82 | A4U C10G G44U | 0.02
83 | G1C A41U C45U C46A | 0.06
84 | U9G C10U G17A | 0.23
85 | G2C G17U G33A U38A | 0.24
86 | A6G C10U G17C U20A C31U A39G | 0
87 | C10A A26G G29A | 0.03
88 | C10U A39G C45G | 0.04
89 | C3A A4U C15G C46A | 0.12
90 | A6G C8A A25G G33U | 0.2
91 | G1U C3A G7C C8A A14G U20G G21C A26C C37A | 0.26
92 | G2A C13U G19U G22U | 0.42
93 | G21U G35C G40C C42G | 0.05
94 | G19A A25C G29U C37G G40C | 0.08
95 | C23A A25U A26G G30U | 2.92
96 | C18U G19C G35A | 0.04

Row | Variant | self-cleavage
97 | G30A C31A C46A | 0.13
98 | C8A U9G A12C A25U C37G | 0
99 | C8G A14U C15A C46A | 0.09
100 | A14G A26C U28C U34A C42U | 0
101 | C3G C15U C37U | 0.36
102 | C13A U32A C46U | 0
103 | C3G C13A A25G C45G | 0.03
104 | U9G U28A G44U | 0.01
105 | A16C G29U U34C | 0.03
106 | G1C A14G A25U G33A A41C C42U | 0.02
107 | A16C G22A C37G | 0.01
108 | G5A C10A A11G | 0.02
109 | A6C G17A C42U | 0.11
110 | U9A A12U G33C C42G | 0.06
111 | C8A G33C G36U U43A C45A | 0.01
112 | C3U C10A G19C | 0.03
113 | G5A C10A C37A A39G | 0.01
114 | G36A C42A C45U | 0.09
115 | C8U A26U A39U | 0.06
116 | G1A C8G C13U G21C G44U | 0.04
117 | U9A C31G G36C | 0.01
118 | G33U U38G C42A | 0.08
119 | C3A A12C G22U C45U | 0.15
120 | C8G C10A C31U G33U C42G C45A | 0.03

Row | Variant | self-cleavage
121 | C10U G35C G36A | 0.02
122 | G1A C8A U28G | 0.46
123 | G7C C8G G19U C23G G35A | 0.33
124 | G1U G21C U32A G33U G36C | 0.03
125 | G7C A14U A39G G40A | 0.07
126 | U20C U32A A39C G40U | 0.04
127 | G7C A16U G17A U43G C45A | 0.09
128 | G2U C3G G7A A12C G44U | 0.02
129 | A12C G29U U38G C42G | 0
130 | C13G C18U U43C | 0.06
131 | A12C G19A A26G C37U A41C | 0.01
132 | A4G U9A A14G C15A C46U | 0.24
133 | C8A C10U G17U | 0.1
134 | U28G C37G G40A | 0.07
135 | U38A A41C C42U | 0.04
136 | U9G A25C U28G | 0.08
137 | C8U C15U C18U U34G C42G | 0.18
138 | G1A C23G U34G | 0.13
139 | A4G A16G A39C | 0.16
140 | G22U G36A G40C | 0.06
141 | U9A C13G G27C G33C A39G | 0.04
142 | A24C G36A A39U C45U | 0.05
143 | G2U A6G A39U | 0.01
144 | G21U G30U C45G | 0.06

Row | Variant | self-cleavage
145 | A6C C13A C15U A25G C45U | 0.04
146 | A14C G29U G40A C45U | 0.05
147 | C3G A16U C46U | 0.04
148 | G5C G19A U20G A25C A26C G33U | 0.12
149 | C23A U28G U32A | 0.08
150 | C8A U9C A25G A26C C37A A41U | 0.08
151 | G2C C15A G30C C31U | 0.14
152 | C3G A6G C31G C37U A39C | 0.02
153 | G7A A12C C18U A25U G40A | 0.01
154 | G1A G29A G36A | 0.03
155 | C8G C13A C15A C18A U34G C46G | 0.06
156 | A11U A24G G40C U43G | 0.01
157 | C10A C23A G40A | 0.08
158 | A6G G17A C23U G27C U34G G44U | 0.59
159 | A11C C31U U32G U38G | 0.01
160 | A6G C10A G40C C45A | 0.02
161 | A6U G7U A16G G35A A41U | 0.13
162 | A26U U32A C46G | 0.18
163 | C13A U34C U38A | 0.07
164 | C15A G30U U32G U38A | 0.02
165 | G1U C31A G35A | 0
166 | G1C A6G C13G C15A U20C G21A | 0
167 | G7U A14G C42G | 0.22
